Results on 86 compounds are retold here after PubChem BioAssay AID1645887 (National Center for Advancing Translational Sciences (NCATS), 2021).

Molecules are shown by their SMILES. “And” between values parts separate entries of the source, which are not always exact repeats. Identical values can stand only once. Out of some 16,000 compounds screened, about 40 (0.2%) were called active. Roughly 1% stayed inconclusive and do not appear here. Calls follow the shape of the dose curve; as a rule, active = well fitted activation curve with a large enough effect; inconclusive = small, poorly fitted or top-dose-only effect, or another doubt; inactive = no such curve, though single readings can be large or run the other way. Some of the results follow.
% is scaled to controls: 0 for no effect and ±100 for the full control effect.

In this assay the target is Rap guanine nucleotide exchange factor 4 (Homo sapiens) (UniProt Q8WZA2). Put plainly: Validation qHTS for agonist of cAMP-regulated guanine nucleotide exchange factor 4 (EPAC2).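 Also: exchange makes BODIPY-GDP fluorescence drop when released from Rap1B; series mostly up to about 150 µM.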 The conditions noted are these: EPAC2 Rap1B BODIPY-GDP exchange, fluorescence; activation: active compounds read high. The method in brief: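 Fluorescent exchange assay: 100 nM EPAC2 with 250 nM RAP1B-BODIPY-GDP and 50 uM GDP; compound added, 5 min at room temperature, then read (ex 480/em 540 nm) every 5 min for 30 min. Normalized to 6.5 mM cAMP agonist control.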
Sequence of UniProt Q8WZA2 (Q8WZA2 whole entry, looked up): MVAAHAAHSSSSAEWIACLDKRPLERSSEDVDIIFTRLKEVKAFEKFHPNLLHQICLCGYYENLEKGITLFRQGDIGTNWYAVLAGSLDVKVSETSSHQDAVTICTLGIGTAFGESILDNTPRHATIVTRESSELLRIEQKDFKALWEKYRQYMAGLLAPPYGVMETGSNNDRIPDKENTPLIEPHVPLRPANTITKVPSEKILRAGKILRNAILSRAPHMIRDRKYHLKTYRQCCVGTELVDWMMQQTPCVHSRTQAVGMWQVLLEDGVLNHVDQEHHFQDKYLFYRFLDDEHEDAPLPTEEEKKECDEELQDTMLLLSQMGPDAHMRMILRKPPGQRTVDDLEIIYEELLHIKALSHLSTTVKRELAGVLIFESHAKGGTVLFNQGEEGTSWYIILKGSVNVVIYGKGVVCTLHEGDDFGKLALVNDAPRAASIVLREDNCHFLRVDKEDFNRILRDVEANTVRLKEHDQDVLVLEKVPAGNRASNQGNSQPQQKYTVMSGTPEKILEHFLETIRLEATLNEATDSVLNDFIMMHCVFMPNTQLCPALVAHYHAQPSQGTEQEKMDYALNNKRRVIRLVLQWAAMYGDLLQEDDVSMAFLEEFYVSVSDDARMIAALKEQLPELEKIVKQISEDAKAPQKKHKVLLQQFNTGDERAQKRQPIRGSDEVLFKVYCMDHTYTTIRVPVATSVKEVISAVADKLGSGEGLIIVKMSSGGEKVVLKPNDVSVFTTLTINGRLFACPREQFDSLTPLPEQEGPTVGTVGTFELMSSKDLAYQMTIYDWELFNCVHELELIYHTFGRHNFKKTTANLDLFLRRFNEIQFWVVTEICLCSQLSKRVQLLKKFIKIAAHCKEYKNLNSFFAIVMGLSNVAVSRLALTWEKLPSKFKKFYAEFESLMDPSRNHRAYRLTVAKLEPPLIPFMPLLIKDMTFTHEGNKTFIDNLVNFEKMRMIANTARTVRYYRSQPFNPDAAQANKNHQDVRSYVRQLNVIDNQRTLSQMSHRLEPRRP
Regarding `Cc1c(N)c(=O)n(-c2ccccc2)n1C`, the activation was inactive: 12.9% and inactive: 17.1%.

In the case of `C(=C\c1ccnc2ccccc12)/c1ccnc2ccccc12`, the activation is inactive: -22.2%. In the case of `COc1cccc(CNC(=O)c2c(OC)cc(=O)n3c2CCN(C(=O)c2csc(C)n2)CC3)c1` it was inactive: 1.41%. In the case of `COc1ccc2c3c1O[C@H]1C[C@H](O)C=C[C@@]31CCN(C)C2` it was inactive: -37.9%; in that of `O=C(O)c1ccc[n+]([O-])c1`, inactive: -9.28%; in that of `COC(=O)N1CCC[C@@]2(CCN(c3ccccn3)C2)C1`, inactive: -4.74%. In the case of `COc1cc(-c2cc(=O)c3ccccc3o2)ccc1O` it was inactive: -29.5%; in that of `NC[C@H]1O[C@H](O[C@H]2[C@H](O)[C@@H](O[C@H]3O[C@H](CO)[C@@H](O)[C@H](N)[C@H]3O)[C@H](N)C[C@@H]2N)[C@H](N)C[C@@H]1O`, inactive: -34.4%. As for `C=CCOc1ccccc1OCC(O)CNC(C)C` (stereo unspecified), the activation is inactive: -9.66%.

For the compound `CC(=O)N1CCC2(CCCN(c3ncccn3)C2)CC1`, the activation was inactive: -3.78%. With `O=C(O)C1(O)C[C@H](O)C(O)[C@@H](O)C1` (stereo partly specified) the figure was inactive: -12.3%; with `COc1ccc2c(c1)c(CC(=O)O)c(C)n2C(=O)c1ccccc1`, inactive: -19.7%. With `CC(NC(=O)c1cccnc1)c1nnc2n1CCN(Cc1ccc(-c3ccccc3)cc1)CC2` (stereo unspecified) the figure was inactive: -8.1%; with `COc1ccc(-n2c(=O)c(C)nc3cnc(N4CCNCC4)nc32)cc1`, inactive: -13.5%. In the case of `Nc1nc2c(cnn2CCc2ccccc2)c2nc(-c3ccco3)nn12` it was inactive: -40.3%; in that of `COc1cccc(Cn2c(=O)c(C)nc3cnc(Oc4cccc(Cl)c4)nc32)c1`, inactive: -8.42%; in that of `O=C(Nc1cccc(F)c1)N1CC2(CCN(C(=O)c3csnn3)CC2)C1`, inactive: -0.619%. Consider `O=C(NCC1Cc2cccc(-c3ncccn3)c2O1)C1CCOC1` (stereo unspecified), for which the activation was inactive: -12%. In the case of `O=C(CCn1cncn1)NCC1Cc2cc(-c3ccsc3)cc(Cl)c2O1` (stereo unspecified) it was inactive: 13.5%; in that of `Cc1oc(-c2ccccc2NC(=O)C2CCC2)nc1CNC(=O)c1cccc(C(F)(F)F)c1`, inactive: 4.54%; in that of `Cc1ccccc1Cc1nc2cccnc2n1C1CCN(C(=O)CC2NC(=O)c3ccccc32)CC1` (stereo unspecified), inactive: -10.3%. As for `FC(F)(F)c1ccccc1-c1nc(-n2ccnc2)c2ccccc2n1`, the activation is inactive: -10%.

For the compound `C[C@@H]1[C@H](c2ccccc2)OCCS(=O)(=O)N1Cc1ccccc1`, the activation is inactive: -5.52%. With `COC(=O)N1CCC2(CCN(Cc3ccc(C#N)cc3)CC2)CC1` the figure was inactive: -21.7%; with `COc1c(Cl)ccc(Cl)c1C(=O)O`, inactive: -11.2%. In the case of `CC1CN(c2cc3c(cc2F)c(=O)c(C(=O)O)cn3-c2ccc(F)cc2F)CCN1` (stereo unspecified) it was inactive: -22.2%; in that of `CCNc1ncc2nc(-c3cccs3)c(=O)n(-c3ccc(OC)cc3)c2n1`, inactive: 9.82%; in that of `CCCCNC(=O)NS(=O)(=O)c1ccc(N)cc1`, inactive: -0.617%. As to `CCOC(=O)/C=C(C)/C=C/C=C(C)/C=C/c1c(C)cc(OC)c(C)c1C`, the activation was inactive: 27.1%. In the case of `C#CCN(Cc1ccccc1)S(=O)(=O)C=C` it was inactive: -30.3%; in that of `C=C[C@@](C)(O)CC[C@@H]1[C@@]2(C)CCCC(C)(C)[C@@H]2CC[C@@]1(C)O`, inactive: -34.1%; in that of `O=C(CCBr)N1CCN(C(=O)CCBr)CC1`, inactive: -12.2%.

On to `COc1cc2c(cc1OC)C(C(C(=O)N(CCc1ccc(OC)c(OC)c1OC)CCc1ccc(OC)c(OC)c1OC)c1ccccc1)=NCC2` (stereo unspecified), for which the activation was inactive: 6.78%. With `Cc1noc(C)c1-c1nc(NCc2cccs2)c2ccccc2n1` the figure was inactive: 2.53%; with `CCCCC1C(=O)N(c2ccccc2)N(c2ccc(O)cc2)C1=O` (stereo unspecified), inactive: -24.3% and inactive: 9.35%. In the case of `N[C@H]1CONC1=O` it was inactive: -33.6%. With `Cc1cnc(-n2ncc(C(=O)NCCc3cccnc3)c2C)nc1-c1ccc(F)cc1` the figure was inactive: -9.87%; with `Cc1cc(O)c2c(c1O)C(=O)c1c(O)cc(C)c(O)c1C2=O`, inactive: -3.45%; with `COc1cc(=O)n2c(c1C(=O)NCc1cccc(F)c1)CCN(Cc1cccnc1)CC2`, inactive: -8.31%. With `COc1ccccc1CNc1ccnc(-c2ccoc2)n1`, the activation was inactive: -10.4%. With `COc1cc(OC)c2ccc(=O)oc2c1` the figure was inactive: 1.61%; with `CCN(CC)C(=O)Nc1ccc(OCC(O)CNC(C)(C)C)c(C(C)=O)c1` (stereo unspecified), inactive: -21.6%. In the case of `CCNc1ncc2nc(-c3ccc(F)cc3)c(=O)n(C[C@H]3CCCO3)c2n1` it was inactive: -10.6%; in that of `CN(C)c1ccc(-c2nc(NCCc3cnc[nH]3)c3ccccc3n2)cc1`, inactive: -13.4%.

`O=C(Nc1ccccc1)N1CCC2(CC1)CCN(C(=O)c1ccncc1)CC2`: the activation was inactive: -18.7%. In the case of `CC(Oc1ccccc1)C(=O)NC1C(=O)N2C(C(=O)O)C(C)(C)S[C@@H]12` (stereo partly specified) it was inactive: -21.3%; in that of `CN(C)c1ccc(-c2ccc3ncnc(NC4CC4)c3c2)cc1`, inactive: -15%; in that of `COc1ccc(-n2c(CCNC(=O)c3ccccc3C(F)(F)F)nnc2SC)cc1`, inactive: -4.98%. In the case of `COc1ccccc1CNc1ncncc1-c1ccoc1` it was inactive: -16.4%; in that of `Cc1cnc(CNc2ccnc(-c3c(C)noc3C)n2)cn1`, inactive: -29.7%. With `O=C(NCCN1CCOCC1)c1cnn(-c2nccc(-c3cccs3)n2)c1C1CC1` the figure was inactive: -14.5%.

Regarding `O=c1c(O)c(-c2ccc(O)cc2)oc2cc(O)cc(O)c12`, the activation was inactive: -47.6% and inactive: -11.5%. For the compound `CCC(=O)N[C@@H]1c2ccccc2C2(CCN(Cc3cnc(N(C)C)s3)CC2)[C@H]1OC`, the activation was inactive: -4.89%. With `CC(=O)Nc1ccc(OC(=O)c2ccccc2O)cc1` the figure was inactive: 13.5%; with `COc1cc2nc(N3CCN(C(=O)C4COc5ccccc5O4)CC3)nc(N)c2cc1OC` (stereo unspecified), inactive: 0.366% and inactive: -47.8%. Take `O=P(O)(O)C(O)(Cn1ccnc1)P(=O)(O)O`: the activation was inactive: -2.86%. Consider `CC(C)CN1CCCC2(CCN(C(=O)c3cccn3C)CC2)C1`, for which the activation was inactive: -15.2%. Turning to `O=C(c1cc(O)c(O)c([N+](=O)[O-])c1)c1ccccc1F`, the activation is inactive: -12%. With `O=c1nc2ccccc2c2n1CC(CN1CCN(c3ccccc3)CC1)N2` (stereo unspecified) the figure was inactive: 0.311%; with `O=c1c(-c2ccccc2)nc2cncnc2n1Cc1ccccc1`, inactive: -12.4%; with `O=c1[nH]ccc2c(O)cccc12`, inactive: -23.1%. With `CC(C)(CO)[C@@H](O)C(=O)NCCC(=O)O` the figure was inactive: 14.6%. In the case of `COc1cccc(CN2CCc3nnc(CCc4ccccc4)n3CC2)c1OC` it was inactive: -12.3%. With `Cc1cc(C(C)(C)C)cc(C)c1CC1=NCCN1`, the activation is inactive: 1.03% and inactive: -7.06% and inactive: -20%. As to `CC[C@]1(O)C[C@@H]2CN(CCc3c([nH]c4ccccc34)[C@@](C(=O)OC)(c3cc4c(cc3OC)N(C)C3[C@]45CCN4CC=C[C@](CC)(C45)[C@@H](OC(C)=O)[C@]3(O)C(=O)OC)C2)C1` (stereo partly specified), the activation was inactive: 11.2%. With `CCN(CCCCOC(=O)c1ccc(OC)c(OC)c1)C(C)Cc1ccc(OC)cc1` (stereo unspecified) the figure was inactive: 4.29% and inactive: -11.4%; with `CCC(C)C(=O)OC1CC(C)C=C2C=CC(C)C(CCC3CC(O)CC(=O)O3)C21` (stereo unspecified), inactive: -19.1%. With `CC(C)(C)CC(C)(C)N=C1Nc2ccc([N+](=O)[O-])cc2N[C@]12C[C@H]1CCCC(=O)N3CC[C@@H](C2)[C@@H]13` the figure was inactive: -29.7%.

On to `COc1cc(C=O)cc(OC)c1[N+](=O)[O-]`, for which the activation was inactive: -39.2%. With `CCN(CC)CCOCCOC(=O)C1(c2ccccc2)CCCC1` the figure was inactive: -8.96% [middle of 4 runs]; with `Cc1ncc2c(c1CNC(=O)c1ccccc1F)CCN(C(=O)c1ccc3c(c1)OCCO3)C2`, inactive: -2.96%; with `C[C@@H]1C[C@H]2[C@@H]3CCC4=CC(=O)C=C[C@]4(C)[C@@]3(F)[C@@H](O)C[C@]2(C)[C@H]1C(=O)CO`, inactive: -13%. With `COc1ccc(Oc2ncc3ncc(=O)n(Cc4cccs4)c3n2)cc1`, the activation is inactive: 2.47%. In the case of `COC(=O)N1CCC2(CCN(C(=O)Nc3cccc(F)c3)CC2)CC1` it was inactive: -14.3%; in that of `CC(C)C[C@@H](NC(=O)OCC1c2ccccc2-c2ccccc21)C(=O)O`, inactive: -21.2%; in that of `O=c1cc(-c2ccc(O)cc2)oc2cc(OC3OC(CO)C(O)C(O)[C@H]3O[C@@H]3OC[C@@](O)(CO)C3O)cc(O)c12` (stereo partly specified), inactive: -1.25%. With `COc1ncc2nc(-c3cccs3)c(=O)n(Cc3cccs3)c2n1` the figure was inactive: 1.52%; with `CCOC(=O)c1c(C)cc(OC)cc1O`, inactive: -20.1%; with `C[C@]12CCC3c4ccc(O)cc4CCC3C1CCC2=O` (stereo partly specified), inactive: -8.13%. In the case of `COc1cccc(Nc2ncc3ncc(=O)n(C)c3n2)c1` it was inactive: -13%; in that of `CS(=O)(=O)Nc1cccc(-c2cc(NCc3ccccc3)ncn2)c1`, inactive: -10.2%; in that of `C[C@@H]1[C@H](O)[C@@H](C)/C=C/C=C\C=C\C=C\C=C\C=C\C=C\[C@H](O[C@@H]2O[C@H](C)[C@@H](O)[C@H](N)[C@@H]2O)C[C@@H]2O[C@](O)(C[C@@H](O)C[C@@H](O)[C@H](O)CC[C@@H](O)C[C@@H](O)CC(=O)O[C@H]1C)C[C@H](O)[C@H]2C(=O)O` (stereo in doubt), inactive: -15.7%. With `Cc1ncnc2nc[nH]c12`, the activation was inactive: -28.5%. In the case of `Nc1ccccc1N` it was inactive: -21.4%. With `COc1ccccc1-c1cc(=O)c2cccc(OC)c2o1` the figure was inactive: 2.59%. Turning to `COCC1CCCN(Cc2ccc3c(c2)CN(C(=O)c2sc(C)nc2C)CCO3)C1` (stereo unspecified), the activation is inactive: -4.33%.
